Source: PubChem BioAssay (Tox21)
The shares of active, inactive and inconclusive entries below differ from those in the screen. Potencies beside an inconclusive call are fits to weak or partial responses and may not hold up. Calls of active or inactive are those of the source. Unless noted, calls come from the whole dose curve; as a rule, active = well fitted cell-killing curve with a large enough effect in the repeat runs; inconclusive = weak or mixed curves, or effect the other way; inactive = no such curve, though single readings can be large or run the other way.

Key:
[1] = qHTS assay to identify small molecule antagonists of the peroxisome proliferator-activated receptor gamma (PPARg) signaling pathway - cell viability counter screen (AID 743194); settings: PPARg-bla HEK293H viability, CellTiter-Glo luminescence, 17 h, co-treated with 50 nM rosiglitazone; activity change, negative = cytotoxicity: at 62.6 µM (top of the series) unless noted; note: nearly all actives have a fitted effect of over 55% in size; for activity change, negative = cytotoxicity: % is set by controls: 0 for no effect and ±100 for the full control effect
Procedure, shortened: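 Cytotoxicity counter screen in PPARg-bla HEK293H cells, same wells as reporter assay. Compounds plus 50 nM rosiglitazone (final) for 17 h at 37 C, then viability read by CellTiter-Glo luminescence.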

[2] = qHTS assay for small molecule agonists of the antioxidant response element (ARE) signaling pathway (AID 743202; active = well fitted activation curve with a large enough effect in the signal ratio in the repeat runs, not every such curve was filed as active; inconclusive = weak or mixed curves, or effect the other way; inactive = no such curve, though single readings can be large or run the other way; the % refers to the signal ratio; for activation: % is set by controls: 0 for no effect and ±100 for the full control effect); settings: HepG2 ARE-bla reporter, beta-lactamase FRET, 16 h; activation: at 73.3 µM (top of the series) unless noted
Procedure, shortened: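 HepG2 ARE-bla reporter line, 2,000 cells/well; 5 h preincubation 37 C/5% CO2; compound (DMSO) 16 h 37 C; B/G FRET substrate 2 h RT; fluorescence intensity.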

[3] = qHTS assay for small molecule activators of the heat shock response signaling pathway - cell viability counter screen (AID 743209); settings: HSE-bla HeLa viability, CellTiter-Glo luminescence, 5 h; activity change, negative = cytotoxicity: at 62.6 µM (top of the series) unless noted; note: nearly all actives have a fitted effect of over 50% in size; for activity change, negative = cytotoxicity: % is set by controls: 0 for no effect and ±100 for the full control effect
Procedure, shortened: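 Viability of HSE-bla HeLa cells is measured with CellTiter-Glo in the wells already used for the reporter read. Compound exposure lasts 5 h at 37 C, and luminescence is read after 30 min at room temperature.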

[4] = qHTS assay for small molecule agonists of the antioxidant response element (ARE) signaling pathway - cell viability counter screen (AID 743203; calls by dose curve; note: nearly all actives have a fitted effect of over 55% in size); settings: ARE-bla HepG2 viability, CellTiter-Glo luminescence, 16 h; viability change, negative = cytotoxic: at 73.3 µM (top of the series)
Procedure, shortened: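 Viability counter screen: stably transfected ARE-bla HepG2 line, 16 hrs compound exposure at 37C/5% CO2, ATP-based CellTiter-Glo luminescence measured in the reporter wells.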
Potency is the fitted concentration of half-maximal effect; tags give direction and shape of the fitted curve.

OCCNCCO
activity change, negative = cytotoxicity [1]: inconclusive: 30.9%
activation [2]: inconclusive: 15.5%

O=C(O)c1ccccc1C(=O)O
Potency [1]: inconclusive: 28.4 µM [rising, partial curve, poor fit]
Potency [2]: inactive

C=C(C)C(=O)OCCOCCOCCOCCOC(=O)C(=C)C
Potency [1]: inconclusive: 61.6 µM [rising, single point]
Potency [2]: inconclusive: 27.3 µM [rising, partial curve]

NCCCNCCSP(=O)(O)O
activity change, negative = cytotoxicity [1]: inactive: -6.69% [at 13.2 µM]

C=CCCCCCCCCCCCCCCCC
activity change, negative = cytotoxicity [1]: inactive: 1.33% [at 5.95 µM]
activation [2]: inconclusive: -0.476% [at 8.36 µM]

CCCCCCCCCCCCCCCCBr
Potency [1]: inconclusive: 0.0745 µM [rising, partial curve, poor fit]
Potency [2]: inactive

CCCCCN(CCCOC)C(=O)C(CCC(=O)O)NC(=O)c1ccc(Cl)c(Cl)c1 (configuration not stated)
Potency [1]: inactive
Potency [2]: inactive
Potency [3]: inconclusive: 0.0422 µM [cytotoxic, full curve, poor fit]

CCCCCCC(O)CCCCCCCCCCC(=O)OC (configuration not stated)
Potency [1]: inconclusive: 24.5 µM [cytotoxic, full curve, poor fit]

FC1(F)C(F)(F)C(F)(F)C2(F)C(F)(F)C(F)(F)C(F)(F)C(F)(F)C2(F)C1(F)F (configuration not stated)
Potency [1]: inactive
activation [2]: inconclusive: -21%
Potency [4]: inconclusive: 9.44 µM [cytotoxic, full curve, poor fit]

O=C1CC(c2ccc(Cl)cc2)CC(=O)N1
Potency [1]: inactive
Potency [2]: inactive

O=c1[nH]cnc2c1ncn2[C@H]1CC[C@@H](CO)O1
Potency [1]: inconclusive: 7.44 µM [rising, full curve, poor fit]
activation [2]: inconclusive: -2.2%

CC(=O)OC(C)C
Potency [1]: inconclusive: 7.54 µM [rising, full curve]
Potency [2]: inactive

Cc1ccc(C(C)c2ccc(C)c(C)c2)cc1C
Potency [1]: inactive
activation [2]: inconclusive: -19.8%

CCCCCCCC/C=C\CCCCCCCCN
Potency [1]: inconclusive: 33.5 µM [cytotoxic]
Potency [2]: inactive
Potency [4]: inconclusive: 33.5 µM [cytotoxic, single point]

c1ccc(CCc2ccccc2)cc1
Potency [1]: inconclusive: 0.138 µM [rising, partial curve, poor fit]
activation [2]: inconclusive: -0.0973%

CCCC(=O)OCOC(=O)C1=C(C)NC(C)=C(C(=O)OC)C1c1cccc(Cl)c1Cl (configuration not stated)
Potency [1]: inactive
activation [2]: inconclusive: 14.1%

CCC(=O)C(=O)CC
Potency [1]: inconclusive: 12.8 µM [cytotoxic, partial curve, poor fit]
Potency [2]: inconclusive: 50.6 µM [rising, single point]
Potency [4]: inconclusive: 0.101 µM [cytotoxic, full curve, poor fit]

O=C(Oc1ccccc1)c1ccc2ccccc2c1O
Potency [1]: inconclusive: 17.4 µM [cytotoxic, full curve, poor fit]

CCN[C@@H]1C[C@H](N)[C@@H](OC2OC(CN)=CCC2N)[C@H](O)[C@H]1O[C@H]1OC[C@](C)(O)[C@H](NC)[C@H]1O (some centres not stated)
activity change, negative = cytotoxicity [1]: inactive: -4.19% [at 0.55 µM]

CCCCCCCCCCCCCCCCCC(=O)OCCCCCCCCCCCCCC(C)C
Potency [1]: inactive

Cc1cc(CCCOc2c(C)cc(-c3noc(C(F)(F)F)n3)cc2C)on1
Potency [1]: inactive
activation [2]: inconclusive: 21.5%
activity change, negative = cytotoxicity [3]: inconclusive: -7.33% [cytotoxic]

CC(C)[C@@H]1CC[C@@H](C)C[C@H]1O
Potency [1]: inactive
activation [2]: inconclusive: 4.76%

O=C(O)c1ccccc1C(=O)Nc1ccc(S(=O)(=O)Nc2nccs2)cc1
Potency [1]: inconclusive: 0.266 µM [cytotoxic, full curve, poor fit]
Potency [2]: inactive

CC1=C(C(=O)O)N2C(=O)[C@@H](NC(=O)[C@H](N)C3=CCC=CC3)[C@H]2SC1
Potency [1]: inactive
Potency [2]: inactive

CCCCCCCCCCN
Potency [1]: inconclusive: 54.9 µM [cytotoxic, single point]
Potency [2]: inactive
Potency [3]: inactive

CC1=CC[C@@]23C[C@@H]1C(C)(C)[C@@H]2CC[C@H]3C
Potency [1]: inconclusive: 38.9 µM [cytotoxic, partial curve, poor fit]

CCCCC(CC)COC(=O)CCCCCCCC(=O)OCC(CC)CCCC (configuration not stated)
Potency [1]: inconclusive: 15.5 µM [rising, partial curve, poor fit]
activation [2]: inconclusive: 5.48%

CCCCCCCCSCCO
Potency [1]: inactive

CCC(C)(CCC(C)C)C(=O)[O-].CCC(C)(CCC(C)C)C(=O)[O-].[Zn+2] (configuration not stated)
Potency [1]: inconclusive: 0.11 µM [rising, full curve, poor fit]
Potency [2]: inactive
